According to publication PMC4336329 (PLoS ONE, 2015):
Among all 310,000 compounds or so, about 14,000 (4.5%) showed an effect of 50% or more. Effects have a minus sign here. Some of the results follow.

What follows are molecules tested against human ether-à-go-go-related gene (hERG) potassium channel (human, UniProt Q12809) (assay: primary screen, population patch clamp on CHO cells stably expressing hERG).
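Note: peak tail current of the secondary pulse compared with the same well before compound.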

Chain of human ether-à-go-go-related gene (hERG) potassium channel (Q12809 whole entry, looked up): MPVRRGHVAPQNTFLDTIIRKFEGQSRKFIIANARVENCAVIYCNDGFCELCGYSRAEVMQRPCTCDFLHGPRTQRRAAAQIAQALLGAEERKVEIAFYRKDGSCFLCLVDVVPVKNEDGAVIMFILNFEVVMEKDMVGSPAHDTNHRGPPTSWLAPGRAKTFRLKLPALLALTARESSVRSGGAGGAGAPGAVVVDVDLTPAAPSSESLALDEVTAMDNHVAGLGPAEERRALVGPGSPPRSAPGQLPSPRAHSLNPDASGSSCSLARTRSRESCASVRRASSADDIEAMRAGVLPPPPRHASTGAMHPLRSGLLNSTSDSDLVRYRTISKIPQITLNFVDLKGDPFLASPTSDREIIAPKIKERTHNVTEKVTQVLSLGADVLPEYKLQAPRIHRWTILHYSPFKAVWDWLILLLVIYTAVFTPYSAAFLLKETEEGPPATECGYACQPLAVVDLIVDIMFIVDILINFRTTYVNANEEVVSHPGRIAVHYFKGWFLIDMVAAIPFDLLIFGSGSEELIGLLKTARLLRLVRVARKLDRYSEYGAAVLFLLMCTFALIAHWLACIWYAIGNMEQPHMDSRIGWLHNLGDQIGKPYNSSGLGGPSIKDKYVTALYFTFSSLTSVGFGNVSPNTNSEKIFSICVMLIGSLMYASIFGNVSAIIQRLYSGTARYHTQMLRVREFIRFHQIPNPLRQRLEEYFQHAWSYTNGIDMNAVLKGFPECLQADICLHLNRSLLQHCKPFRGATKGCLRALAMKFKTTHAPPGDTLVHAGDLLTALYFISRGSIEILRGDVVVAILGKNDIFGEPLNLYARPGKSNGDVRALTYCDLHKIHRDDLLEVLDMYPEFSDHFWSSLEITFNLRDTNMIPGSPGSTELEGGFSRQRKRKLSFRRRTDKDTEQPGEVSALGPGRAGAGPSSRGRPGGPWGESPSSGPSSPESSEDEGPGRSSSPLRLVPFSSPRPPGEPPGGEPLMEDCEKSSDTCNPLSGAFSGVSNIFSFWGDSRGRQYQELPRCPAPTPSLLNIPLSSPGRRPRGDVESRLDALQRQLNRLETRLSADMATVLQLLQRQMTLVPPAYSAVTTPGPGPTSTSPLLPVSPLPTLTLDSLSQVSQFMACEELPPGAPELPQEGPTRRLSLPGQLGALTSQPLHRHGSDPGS

SMILES | hERG current change (%, negative = inhibition) at 10uM
CC(=O)c1csc(COc2cc(Cl)cc(Cl)c2)n1 | 3.06%
N#Cc1ccc(OS(=O)(=O)c2ccc(-c3ccon3)s2)cc1 | -45.6%
N#CCCCSc1nnc(-c2ccccn2)o1 | 7.48%
CCOc1cccc2c1OC1(C)CC2NC(=O)N1c1cccc(C(=O)N2CCN(c3ccccn3)CC2)c1 (stereo not drawn) | -1.89%
COc1ccc(CC(=O)NCc2nnc(SCC(=O)Nc3nccs3)n2-c2ccccc2)cc1 | 2.7%
COCCN(C(=O)COC(=O)CNC(=O)c1cccs1)c1c(N)n(Cc2ccccc2)c(=O)[nH]c1=O | 9.31%
COc1ccc(C(CNC(=O)CCOc2ccccc2)N(C)C)cc1 (stereo not drawn) | -29.4%
Clc1ccc(Cn2c(-c3cccnc3Cl)nc3ccccc32)cc1 | -70.7%
O=C(O)c1ccc(OCCOc2ccccc2)cc1 | 13.6%
C=CCOc1c(Br)cc(C2C3=C(CCCC3=O)N(C)C3=C2C(=O)CCC3)cc1OCC | 1.88%
O=C(CNc1ccccc1F)Nc1cc(S(=O)(=O)N2CCCCC2)ccc1Cl | 5.42%
CCOC(=O)c1c(C)[nH]c(C)c1C(=O)COC(=O)c1cc(OC)c(OC)cc1OC | 10.1%
C=CCn1c(SCc2c(Cl)cccc2Cl)nnc1-c1cccnc1 | -30.6%
CC(C(=O)Nc1ccc(S(=O)(=O)N2CCOCC2)cc1)N(c1ccccc1)S(C)(=O)=O (stereo not drawn) | 4.71%
CS(=O)(=O)N1N=C(c2ccccc2)CC1c1ccc2c(c1)OCO2 (stereo not drawn) | 13.9%
O=C(COC(=O)CNC(=O)c1cccc(Br)c1)Nc1nnc(-c2ccccc2)o1 | -0.546%
CCCCn1nc(CC(=O)O)c2ccccc2c1=O | 4.35%
CCOC(=O)c1sc(N)c(C#N)c1COC(=O)CNC(=O)c1cc(OC)c(OC)c(OC)c1 | -25%
CCOc1cc(/C=C2\SC(=O)N=C2N)ccc1O | 6.75%
S=C(Nc1ccccc1)N1CCN(c2ccc(N3CCOCC3)nn2)CC1 | 2.38%
C=CCNC(=O)c1ccc(-n2cccc2)cc1 | 8.49%
CC(=O)Nc1ccc(/C=N\NC(=O)CNS(=O)(=O)c2ccc([N+](=O)[O-])cc2)cc1 | -4.32%
CCc1cc(=O)oc2c(CN3CCCC3)c(O)c(Cl)cc12 | -16.6%
CC12CCC(C(=O)N(c3ccccn3)c3ccccn3)(OC1=O)C2(C)C (stereo not drawn) | 3.38%
